# Whole data set: some 33,000 sequences, median “E-score (-0.5 to 0.5)” near -0.036, cut for the highest 2% near 0.37. The list shows a part of the results.
# Biological target: T1, Yer064c (UniProt P40041)
# T1 sequence: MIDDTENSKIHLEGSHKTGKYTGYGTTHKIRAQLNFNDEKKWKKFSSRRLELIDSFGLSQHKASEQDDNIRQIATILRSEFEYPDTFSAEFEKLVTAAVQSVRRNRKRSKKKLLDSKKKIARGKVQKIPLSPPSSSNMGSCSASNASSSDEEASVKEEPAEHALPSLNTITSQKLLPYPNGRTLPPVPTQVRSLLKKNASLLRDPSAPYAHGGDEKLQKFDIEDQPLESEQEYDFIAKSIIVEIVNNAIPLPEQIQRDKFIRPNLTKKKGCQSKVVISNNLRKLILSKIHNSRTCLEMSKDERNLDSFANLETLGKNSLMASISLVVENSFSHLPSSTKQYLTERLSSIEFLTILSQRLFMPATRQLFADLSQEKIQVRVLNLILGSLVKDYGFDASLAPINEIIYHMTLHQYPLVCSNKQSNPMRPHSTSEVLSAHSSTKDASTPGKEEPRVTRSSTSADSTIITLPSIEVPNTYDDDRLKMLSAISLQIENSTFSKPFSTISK
# Test: PBM E-score (8-mer binding enrichment) (E-score (-0.5 to 0.5)); higher = stronger / more preferred TF binding; most listed sequences are background and not binding sites
# Details: protein concentration: 200 nM; construct: GST-full length
# How it was run: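 Yeast transcription factors carrying a GST tag, as full-length proteins or DNA-binding domains, were produced by PURExpress in vitro transcription/translation. About 100-200 nM protein was applied to universal all-10-mer Agilent arrays, double-stranded by primer extension on fresh or once-stripped slides. Bound protein was detected with fluorescent anti-GST, and scans were normalised with masliner. The Universal PBM Analysis Suite gave each ungapped eight-base word, pooled with its reverse complement, an E-score, a modified Wilcoxon-Mann-Whitney statistic.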
row,Sequence,PBM E-score
1,ATCAGGAC,0.219
2,GTCCGCGA,0.041
3,ATCGCCGC,-0.042
4,AAGGTGCC,-0.144
5,ACGGCTTC,-0.224
6,GAGAATGA,0.125
7,GTTGATAA,0.209
8,GGCCTCCA,-0.169
9,CGACCACG,-0.115
10,CTGCAGCC,-0.105
11,TCTTGTCA,0.0805
12,GATCACTA,0.135
13,AACGTCCG,-0.343
14,TAAATTTA,0.249
15,CGATAATA,-0.0601
16,CGTCCGTC,-0.269
17,AGTCCGCA,0.255
18,CTTCGTCC,-0.159
19,GAGCGGTA,-0.164
20,ACAAAAGA,0.106
21,TAAAGCGA,0.177
22,ATGGGTAC,0.239
23,CACGATGC,-0.0934
24,AACCATCT,0.128
25,AGTTTAGG,0.0907

row,Sequence,PBM E-score
1,AATGCAGA,0.0123
2,CCCCTCGC,-0.204
3,CGTTCGAA,0.184
4,GCTGATAA,-0.0118
5,GGACTACA,0.262
6,CGGAAAAC,-0.147
7,CATAGATC,-0.00739
8,TGGTGTAA,-0.0744
9,AACTAAAA,0.0564
10,AAACTACG,-0.0191
11,CACTCCCA,0.0058
12,CGCATGAG,0.145
13,AACGTATA,-0.088
14,ATTCGTCG,0.0523
15,ATTACAAT,0.0194
16,ATGGCTGG,-0.105
17,ACATCCGT,-0.00276
18,CCGGGGTC,-0.134
19,ATCAAGGC,0.136
20,ACGCAACA,-0.0207
21,GATCACCA,0.094
22,CTCAGCAC,-0.11
23,CACCAGCA,-0.0231
24,AAACGGCC,-0.185
25,CCTGGAAA,-0.189

row,Sequence,PBM E-score
1,CGGGTTGA,0.0912
2,TACGCGTA,0.042
3,GTGGAGAA,-0.0503
4,CCTTCGCA,-0.293
5,GCTACCTA,-0.161
6,GTTCCCTA,-0.143
7,ACTACGAA,0.12
8,GTGATGCA,-0.104
9,GGGGGAGA,-0.265
10,ACACCTTC,-0.115
11,GCTAGGCA,-0.0458
12,ATTCGACA,-0.141
13,AGCCGCGG,-0.219
14,AGGACGGC,-0.0933
15,CGGGTTCC,-0.245
16,AACTGAAC,-0.119
17,AACCCTTA,-0.0338
18,TACAGCAA,0.0441
19,AGGAAGGA,-0.0925
20,CATAAAAC,0.0389
21,CCAGCTGA,0.146
22,ATATGACA,-0.00572
23,CATGGCGA,0.0484
24,ATGTTGGG,-0.217
25,CTACCACA,0.149

row,Sequence,PBM E-score
1,CCACTCAA,0.0849
2,CCGCCTGC,0.00718
3,GTCGCCAA,0.161
4,GAATTTAA,0.0168
5,TCACAACA,0.204
6,CACCAACA,0.0386
7,AGGTACAG,-0.104
8,AGTGGCTC,0.0696
9,CATCTGTA,-0.0129
10,AAGAACTA,0.0907
11,TAGAAACA,-0.0213
12,GATATTGA,0.0449
13,TCGAGTCA,0.471
14,CGTCTGGC,-0.0308
15,CTACGCAG,0.0104
16,GCTGTAAA,-0.0319
17,ATCGCAGC,0.0831
18,CCGGCAGC,-0.094
19,AGGCTCCG,-0.185
20,AAACGGGG,-0.128
21,ATACACAA,0.0358
22,GACCAGAC,-0.143
23,ACGCGGAG,-0.145
24,CGGTCCCC,-0.287
25,AGGAGATA,-0.194

row,Sequence,PBM E-score
1,GGGCCGTA,-0.231
2,CGTCTTAG,-0.188
3,ATAGCAGG,-0.169
4,CGCTGTAG,-0.0731
5,AACTCAGG,0.0445
6,CGCCTTGC,-0.0684
7,AGGATTTG,-0.0258
8,TGACGTAA,0.00826
9,AAATTAGG,-0.0277
10,AGGACTAC,0.341
11,ACCCAGAA,0.163
12,AATAATTC,0.0244
13,ATCCCTGC,-0.114
14,ATAATGAA,0.185
15,GCCTCTGA,-0.0264
16,AAGAGTCC,0.303
17,ATTTAGGA,0.151
18,CAGGCACC,-0.0975
19,CTCGTCAG,0.00393
20,ACATGCCA,-0.0159
21,CCGCTCTC,-0.159
22,CCGTAACG,-0.238
23,TCAGGAGA,0.159
24,AACGTGTC,-0.16
25,GGAGAGCC,-0.195

row,Sequence,PBM E-score
1,ACGGTATA,-0.255
2,GAGGGAAC,-0.319
3,GAGGTAAA,0.122
4,GCTTACAC,-0.0577
5,ACGTTGGG,0.00438
6,ATCCTGCC,-0.159
7,CCGCTCAC,-0.1
8,GGAACAAC,0.0564
9,CCGTCTGA,-0.0271
10,CCGTTTGA,0.0399
11,ACTTAAGA,0.204
12,ACAATAGC,0.0973
13,GTGCGGCA,-0.143
14,AGGATGTC,0.00214
15,GAAACATA,0.0114
16,CTGGCGGA,0.0452
17,CGATGACA,-0.0688
18,CTAGCCCA,-0.0863
19,ATCAGCTA,0.0333
20,AGTTCAGA,0.0534
21,CGCTCACA,-0.0179
22,AGGACCTG,-0.224
23,ATAGACGA,0.0716
24,CCATGAAG,0.0179
25,GCGCACTA,-0.326

row,Sequence,PBM E-score
1,GCGCGCCC,-0.0703
2,ACTATTGC,0.151
3,CTACAACA,0.0623
4,AAGTGAAA,-0.00667
5,CTTAATCA,0.45
6,ACGACATA,-0.164
7,AACGTTGC,-0.124
8,AGCAGCGA,-0.0693
9,GCAAACCC,-0.249
10,AAACGGGT,-0.154
11,GTAAGGGA,-0.0548
12,CACCGCCC,-0.0824
13,CTTGCTGA,0.0233
14,CCTATAGG,-0.338
15,ACACGGAT,0.075
16,CGAGTGTA,-0.019
17,CGCGAGTC,0.405
18,CTAGGACA,0.0648
19,AAGCTTCA,-0.204
20,ACAATACT,0.178
21,TGCATAAA,0.0405
22,AAGACTCT,0.425
